# Experimental data taken from PubChem BioAssay AID360 (National Center for Advancing Translational Sciences (NCATS), 2006).
# The campaign covered roughly 48,000 compounds. About 550 (1.1%) were called active. Roughly 4% stayed inconclusive and do not appear here. Cut-off read from the data, not from the text of the source: active = potency below about 15 µM; inconclusive = mostly about 16 µM to 33 µM; inactive = weaker than that. This is one part of the list.
# Target: Lysosomal acid glucosylceramidase (Homo sapiens) (UniProt P04062)
# Assay: Glucocerebrosidase;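 note: the screen sought inhibitors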
# Settings: purified enzyme, resorufin glucoside fluorescence (screen aimed at inhibitors), 20 min
# Procedure, shortened: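 Normal human glucocerebrosidase (0.2 nM final) was assayed with resorufin β-D-glucopyranoside (30 uM final) in 50mM citric acid/KH2PO4, 10mM sodium taurocholate, 0.01% tween-20, pH 5.9. Compounds were titrated; fluorescence (Ex 548, Em 600) read after 20 min at RT.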
# Potency is the fitted concentration of half-maximal effect.
# Sequence of UniProt P04062 (P04062 whole entry, looked up): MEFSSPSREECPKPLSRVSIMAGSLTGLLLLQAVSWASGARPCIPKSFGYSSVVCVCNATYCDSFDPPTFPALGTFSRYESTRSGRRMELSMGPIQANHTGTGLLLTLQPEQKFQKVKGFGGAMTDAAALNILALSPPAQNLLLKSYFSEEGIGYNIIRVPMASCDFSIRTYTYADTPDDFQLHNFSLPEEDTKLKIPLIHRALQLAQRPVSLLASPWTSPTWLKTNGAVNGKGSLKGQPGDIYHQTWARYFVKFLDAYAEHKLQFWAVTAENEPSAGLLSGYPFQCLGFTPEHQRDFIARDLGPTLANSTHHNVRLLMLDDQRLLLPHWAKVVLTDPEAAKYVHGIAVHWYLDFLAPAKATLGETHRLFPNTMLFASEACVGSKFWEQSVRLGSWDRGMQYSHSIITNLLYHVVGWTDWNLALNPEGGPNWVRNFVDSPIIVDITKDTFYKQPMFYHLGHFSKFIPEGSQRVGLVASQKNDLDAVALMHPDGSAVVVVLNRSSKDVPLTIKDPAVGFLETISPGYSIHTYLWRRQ
row,Structure (SMILES),Potency
1,COC(=O)c1ccc(C)c(NC(=O)c2c(-c3ccccc3)noc2C)c1,inactive: > 76.9 µM
2,COC(=O)c1c(C(=O)NCc2ccccc2)ncn1CC(O)COc1ccccc1 (stereo not drawn),inactive: > 76.9 µM
3,CCn1c(SCC(=O)C(C)(C)C)nnc1-c1ccccc1OC,inactive: > 76.9 µM
4,O=C(CCCc1nc(-c2ccccc2Cl)no1)NCc1cccnc1,inactive: > 76.9 µM
5,CC(C)(C)C(=O)NC1CCN(C(=O)N2CCCC2)CC1,inactive: > 76.9 µM
6,COC(=O)c1ccccc1NC(=O)CN1C(=O)c2ccccc2S1(=O)=O,inactive: > 76.9 µM
7,Cc1ccnc(N2CCC(C(=O)Nc3nnc(C)s3)CC2)n1,active: 11.7 µM
8,CCCCC(=O)c1c(O)c2ccccc2oc1=O,inactive: > 76.9 µM
9,COCCn1nnnc1CN1CCC(NC(=O)c2ccc(Br)cc2)CC1,inactive: > 76.9 µM
10,COc1ccccc1-c1nc(C(F)(F)F)c(OC)o1,inactive: > 76.9 µM
11,Cc1noc(C)c1COC(=O)c1cccc(S(=O)(=O)N2CCCCCC2)c1,inactive: > 76.9 µM
12,Cc1ccc2c(c1)c(C)c(C)n2CC(O)CN1CCOCC1 (stereo not drawn),inactive: > 76.9 µM
13,CCn1c(SCC(=O)Nc2cc(C)on2)nc2c(c1=O)SC(C)C2 (stereo not drawn),inactive: > 76.9 µM
14,Cc1ccc(N2CC(C(=O)OCc3ccccc3F)CC2=O)cc1 (stereo not drawn),inactive: > 76.9 µM
15,Cc1ccc(C(C(=O)NC2CCCCC2)N(C(=O)c2csnn2)C2CC2)o1 (stereo not drawn),inactive: > 76.9 µM
16,CCN(CC)S(=O)(=O)c1ccc(Cl)c(C(=O)Oc2cccnc2)c1,inactive: > 76.9 µM
17,CC(O)c1nc2ccc(Cc3ccc4nc(C(C)O)[nH]c4c3)cc2[nH]1 (stereo not drawn),inactive: > 76.9 µM
18,COc1ccc(CCN(C(=O)c2ccccc2)C2=CC3CCC(C2)N3C)cc1OC (stereo not drawn),inactive: > 76.9 µM
19,Cc1ccc2cc(CN(CCN3CCCC3)C(=O)Nc3ccccc3)c(=O)[nH]c2c1C,inactive: > 76.9 µM
20,COc1ccccc1Nc1nc(N)nc(CN2CCN(c3ccccc3)CC2)n1,active: 6.8 µM
21,CCc1nc2sc3ccccc3c(=O)c2c(=O)n1Cc1ccco1,inactive: > 76.9 µM
22,C=CCNC(=O)c1ccccc1NC(=O)Nc1ccccc1,inactive: > 76.9 µM

row,Structure (SMILES),Potency
1,CCCc1[nH]nc2c1C(c1ccc(OC(=O)N3CCOCC3)cc1)C(C#N)=C(N)O2 (stereo not drawn),inactive: > 76.9 µM
2,O=C(NCc1ccccn1)c1cc(-n2cnnc2)ccc1Cl,inactive: > 76.9 µM
3,CCOC(=O)C1CCN(C(=O)c2c(-c3c(Cl)cccc3Cl)noc2C)CC1,inactive: > 76.9 µM
4,CCCc1cc(Nc2cccc(OC)c2)n2ncnc2n1,inactive: > 76.9 µM
5,COc1cccc(CN(C)CC(=O)NC(=O)NCc2ccco2)c1,inactive: > 76.9 µM
6,CCOC(=O)N1CCN(CCC(=O)Nc2ccc(C)c(Br)c2)CC1,inactive: > 76.9 µM
7,CCOC(=O)c1sc(NC(=O)CSc2nnnn2-c2ccccc2)c(C(=O)OCC)c1C,inactive: > 76.9 µM
8,O=C(Cn1ccc2ccccc2c1=O)NCCC(=O)N1CCN(C(=O)c2ccco2)CC1,inactive: > 76.9 µM
9,COc1cc2c(cc1OC)CN(C(=O)c1ccccc1C(=O)O)CC2,inactive: > 76.9 µM
10,N#C/C=C1\Sc2ccccc2C(=O)N1CC(=O)N1CCN(S(=O)(=O)c2ccccc2)CC1,inactive: > 76.9 µM
11,CCCCn1c(SCC(=O)Nc2nnc(C(C)C)s2)nc2c1c(=O)n(C)c(=O)n2C,inactive: > 76.9 µM
12,c1ccc(Cn2nnc3cnccc32)cc1,inactive: > 76.9 µM
13,C=COCCNC(=O)Nc1ccc(Cl)c(Cl)c1,inactive: > 76.9 µM
14,CCOC(=O)N1CCC(NS(=O)(=O)c2cc3c(cc2C)NC(=O)CO3)CC1,inactive: > 76.9 µM
15,Cc1ccc(C2/C(=C(\O)c3c(C)nc4ccccn34)C(=O)C(=O)N2CCCN2CCOCC2)o1 (stereo not drawn),inactive: > 76.9 µM
16,COc1ccc(C)cc1NC(=O)c1ccc(S(=O)(=O)N2CCOCC2)cc1,inactive: > 76.9 µM
17,Cc1[nH]nc2c1-c1nc3ccccc3nc1C(C)(C)C2,inactive: > 76.9 µM
18,COc1ccc(-c2cnnn2-c2ccc(NC(=O)c3ccco3)cc2)cc1OC,inactive: > 76.9 µM
19,Cc1nnc(NC(=O)CSc2nnc(-c3ccoc3C)n2CC(C)C)s1,inactive: > 76.9 µM
20,O=C(Nc1cccc(NC(=O)N2CCN(c3ccccc3)CC2)c1)N1CCN(c2ccccc2)CC1,inactive: > 76.9 µM
21,C=CCn1c(N)c(S(=O)(=O)c2cccs2)c2nc3ccccc3nc21,inactive: > 76.9 µM
22,Cc1nc(SCC(=O)Nn2c(-c3ccccc3)nc3ccccc3c2=O)n[nH]1,inactive: > 76.9 µM

row,Structure (SMILES),Potency
1,COc1ccc(C2C(C(=O)c3ccco3)=C(O)C(=O)N2CCc2ccccc2)cc1OC (stereo not drawn),inactive: > 76.9 µM
2,COc1ccc(CN2CN(C(C)C)CSC2=S)cc1,inactive: > 76.9 µM
3,Cc1ccc(-c2nc3ccccc3c(=O)n2CCN2CCOCC2)cc1,inactive: > 76.9 µM
4,Cc1cc(C)c(NC(=O)c2ccc(S(=O)(=O)N(C)C)cc2)c(C)n1,inactive: > 76.9 µM
5,CN1CCCC(OC(=O)COc2ccc(Br)cc2)C1 (stereo not drawn),inactive: > 76.9 µM
6,CCC(=O)N1CCN(c2ccc(NC(=O)c3ccc4c(c3)OCO4)cc2)CC1,inactive
7,Cc1cc(C)nc(N2C(=O)CC(C(C)c3ccccc3)C2=O)n1 (stereo not drawn),inactive: > 76.9 µM
8,CCc1nnc(NC(=O)Cn2ccc(C(F)(F)F)n2)s1,inactive
9,O=C(CNS(=O)(=O)c1ccc(Br)s1)N1CCN(c2ncccn2)CC1,inactive: > 76.9 µM
10,COc1ccc(OC)c(NC(=O)c2cc(-c3ccc(C)cc3O)n[nH]2)c1,inactive: > 76.9 µM
11,Clc1ccccc1OCc1nc(-c2ccccn2)no1,inactive: > 76.9 µM
12,O=C(CN1C2CCC1CC(NC(=O)C1CC1)C2)NCc1ccccc1 (stereo not drawn),inactive: > 76.9 µM
13,Cc1ccc(-c2nnn(CCC(=O)NC3CCCC3)n2)cc1,inactive: > 76.9 µM
14,Cc1cc(C)nc(N2CCCC(C(=O)NC3CCCC3)C2)n1 (stereo not drawn),inactive: > 76.9 µM
15,Cc1cc(NC(=O)COc2ccccc2)n(-c2ccccc2)n1,inactive: > 76.9 µM
16,O=C(NCCc1ccccc1)C1CCN(S(=O)(=O)c2ccc(-c3nn[nH]n3)cc2)CC1,inactive: > 76.9 µM
17,O=C(CNS(=O)(=O)c1ccc(C(=O)N2CCCCC2)cc1)N1CCCCC1,inactive: > 76.9 µM
18,COc1ccc2cc(CN(CCO)C(=O)c3ccccc3F)c(=O)[nH]c2c1,inactive: > 76.9 µM
19,COC(=O)c1cc(OC)c(OC)c(OC)c1NC(=O)c1ccc(S(=O)(=O)N(C)C)cc1,inactive: > 76.9 µM
20,COc1ccc(N(CC(=O)NC2CCCC2)C(=O)CCC(=O)Nc2cc(C)on2)c(OC)c1,inactive: > 76.9 µM
21,CCC1Oc2ccc(C)cc2N(CC(=O)NCc2cc(OC)ccc2OC)C1=O (stereo not drawn),inactive: > 76.9 µM
22,CN(C)CCN1C(=O)c2oc3ccccc3c(=O)c2C1c1ccc(F)cc1 (stereo not drawn),inactive: > 76.9 µM

row,Structure (SMILES),Potency
1,c1ccc(-c2nc(N3CCCCCC3)c3ccccc3n2)nc1,inactive: > 76.9 µM
2,CC(=O)[C@@H]1[C@@H]2C(=O)N(c3ccc(F)c(Cl)c3)C(=O)[C@@H]2C2c3ccccc3C=CN21 (stereo partly drawn),inactive: > 76.9 µM
3,COc1ccc(OC)c(S(=O)(=O)N2CCC(C(=O)Nc3cccc(C(F)(F)F)c3)CC2)c1,inactive: > 76.9 µM
4,C=CCNS(=O)(=O)c1ccc(OCC(=O)OCC)cc1,inactive: > 76.9 µM
5,COC(=O)C1(S(=O)(=O)c2ccc(C)cc2)CCOCC1,inactive: > 76.9 µM
6,COCC(=O)Nc1cccc(C(F)(F)F)c1,inactive: > 76.9 µM
7,CC(NC(=O)C1CCN(S(=O)(=O)N2CCCCCC2)CC1)c1ccccc1 (stereo not drawn),inactive: > 76.9 µM
8,CCOC(=O)c1[nH]c(C)c(C(=O)NCc2ccccn2)c1C,inactive: > 76.9 µM
9,O=C(NCc1ccc2c(c1)OCO2)c1ccc(COc2cccc(Cl)c2)o1,inactive: > 76.9 µM
10,C=CCn1c(O)c(C(CC)=Nc2ccccc2NC(=O)CC)c(=O)[nH]c1=O,inactive: > 76.9 µM
11,O=c1c2ccccc2nc(SCc2cc(F)cc3c2OCOC3)n1Cc1ccco1,inactive: > 76.9 µM
12,Cc1cc(NS(=O)(=O)c2ccc(NC(=O)Cc3cccs3)cc2)no1,inactive: > 76.9 µM
13,CN(CC(=O)N1CCN(c2ccccc2)CC1)S(=O)(=O)c1cnc[nH]1,inactive: > 76.9 µM
14,COc1ccc(CN(C(=O)c2ccco2)c2ccc(C)cc2)cc1OC,inactive: > 76.9 µM
15,CCOC(=O)Cc1[nH]nc2c1C(c1cccc(OC)c1OC)C(C#N)=C(N)O2 (stereo not drawn),inactive: > 76.9 µM
16,CCCc1cc(=O)oc2cc(Oc3ncccn3)ccc12,inactive: > 76.9 µM
17,O=C(NCc1cccs1)C1CCN(S(=O)(=O)c2ccc(Br)s2)CC1,inactive: > 76.9 µM
18,CCOC(=O)N1CCC(Nc2c(-c3ccc(C)c(C)c3)c(=O)c2=O)CC1,inactive: > 76.9 µM
19,CCOC(=O)CNc1c(-c2ccc(O)cc2)nc2ccc(Cl)cn12,active: 4.11 µM
20,Cc1cc(-c2ccco2)c(C#N)c2nc3ccccc3n12,inactive: > 76.9 µM
21,COc1ccc(C(=O)N2CCCC(c3nc(-c4cc(OC)c(OC)c(OC)c4)no3)C2)cc1 (stereo not drawn),inactive: > 76.9 µM
22,c1coc(-c2nnc(SCc3cn4ccccc4n3)o2)c1,inactive: > 76.9 µM
